Experimental data published in PMC4336329 (PLoS ONE, 2015).
In all, about 310,000 compounds went through this assay and about 2,200 (0.71%) showed an effect of 50% or more. Effects have a minus sign here. This is one part of the list.

target: human ether-à-go-go-related gene (hERG) potassium channel (human, UniProt Q12809); experiment: primary screen, population patch clamp on CHO cells stably expressing hERG
Sequence (Q12809 whole entry, looked up): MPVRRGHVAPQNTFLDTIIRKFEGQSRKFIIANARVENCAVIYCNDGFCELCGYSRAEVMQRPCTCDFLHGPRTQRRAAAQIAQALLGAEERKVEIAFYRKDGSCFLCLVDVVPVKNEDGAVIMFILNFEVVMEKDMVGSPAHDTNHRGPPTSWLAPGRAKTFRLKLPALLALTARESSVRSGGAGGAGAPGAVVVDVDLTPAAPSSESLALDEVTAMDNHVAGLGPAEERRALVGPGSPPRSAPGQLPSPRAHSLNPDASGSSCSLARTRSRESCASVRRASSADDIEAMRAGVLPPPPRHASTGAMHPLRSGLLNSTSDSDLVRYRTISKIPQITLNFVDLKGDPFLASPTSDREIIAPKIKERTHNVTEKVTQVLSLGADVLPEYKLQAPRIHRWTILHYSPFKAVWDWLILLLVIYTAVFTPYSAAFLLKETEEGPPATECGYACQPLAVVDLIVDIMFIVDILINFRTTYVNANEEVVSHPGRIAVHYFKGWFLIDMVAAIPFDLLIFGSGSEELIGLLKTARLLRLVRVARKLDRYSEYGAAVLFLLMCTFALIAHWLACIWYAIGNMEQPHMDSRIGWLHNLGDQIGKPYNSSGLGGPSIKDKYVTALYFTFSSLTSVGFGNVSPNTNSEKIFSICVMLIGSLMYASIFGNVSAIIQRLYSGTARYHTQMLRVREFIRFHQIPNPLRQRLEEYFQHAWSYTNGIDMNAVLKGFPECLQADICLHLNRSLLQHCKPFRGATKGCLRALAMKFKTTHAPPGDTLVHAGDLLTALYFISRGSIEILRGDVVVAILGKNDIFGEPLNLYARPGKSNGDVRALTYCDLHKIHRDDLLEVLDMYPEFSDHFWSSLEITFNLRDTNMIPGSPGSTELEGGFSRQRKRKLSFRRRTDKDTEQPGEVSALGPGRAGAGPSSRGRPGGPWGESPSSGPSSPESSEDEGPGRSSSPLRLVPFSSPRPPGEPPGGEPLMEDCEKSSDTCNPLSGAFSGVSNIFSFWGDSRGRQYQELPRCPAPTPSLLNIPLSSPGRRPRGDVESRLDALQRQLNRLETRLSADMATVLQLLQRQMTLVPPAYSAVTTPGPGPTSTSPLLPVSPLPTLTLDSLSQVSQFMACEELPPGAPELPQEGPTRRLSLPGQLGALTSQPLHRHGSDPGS

| Compound | hERG current change (%, negative = inhibition) at 1uM |
| --- | --- |
| O=C(CSC(=S)N1CCCC1)N1CCN(S(=O)(=O)c2ccccc2F)CC1 | -2.31% |
| O=C(NNc1nc2c(F)cc(F)cc2s1)C1COc2ccccc2O1 (stereo not drawn) | -2.36% |
| CC(C)(C)NC(=O)c1cccc2c1OC(C)(C)C2 | -5.35% |
| COc1ccc(N2CCN(C(=O)CNS(=O)(=O)c3ccc(Br)s3)CC2)cc1 | 0.732% |
| CCOc1ccccc1N(C(C)=O)S(=O)(=O)c1ccc(Cl)cc1 | 11.5% |
| CCCCc1c(O)nc(SCC(=O)NCC2CCCO2)[nH]c1=O (stereo not drawn) | 0.0534% |
| O=C(NCc1ccc(Cl)c(Cl)c1)c1cccnc1 | 8.17% |
| COc1cccc(Sc2cc(N3CCOCC3)nc(-c3ccccc3)n2)c1 | 5.83% |
| O=C(NNC(=O)c1ccccc1F)c1cccc(-n2cccc2)c1 | 2.75% |
| CCCOc1ccc(NC(=O)CC2C(=O)N(Cc3ccccc3)C(=S)N2Cc2cccs2)cc1 (stereo not drawn) | 14.9% |
| O=c1cc(-c2ccccc2Cl)oc2c(NS(=O)(=O)c3cccc4nsnc34)ccc(O)c12 | 12.2% |
| COCCCNC(=O)c1c(N)n(-c2ccc(S(N)(=O)=O)cc2)c2nc3ccccc3nc12 | -4.03% |
| CSc1ccc(CN(C)C(=O)c2ccc(S(=O)(=O)Nc3ccccc3)cc2)cc1 | 6.81% |
| CCOc1nonc1C(=N)/C(C(C)=O)=C(\C)O | 8.1% |
| COc1ccccc1N1CCN(/N=C\C(Br)=C\c2ccccc2)CC1 | 7.48% |
| CC(C)(C)N1CC(C(=O)Nc2ccc(S(=O)(=O)N3CCCCC3)cc2)CC1=O (stereo not drawn) | 7.58% |
| O=C(c1ccccc1F)N1CCN(c2cccc(C(F)(F)F)c2)CC1 | 14% |
| COc1cccc(OC)c1C(=O)Nc1cccc(C(C)=O)c1 | 8.94% |
| CCCCn1c(N)c(Sc2ccc([N+](=O)[O-])cc2)c(=O)[nH]c1=O | -24% |

| Compound | hERG current change (%, negative = inhibition) at 1uM |
| --- | --- |
| O=C1CCCc2[nH]c3cccc(/C(=C/c4ccccc4)c4ccccc4)c3c21 | 10.7% |
| O=C1c2ccccc2CN1Cc1ccccc1 | 12.3% |
| CC1(C)C(c2ccccc2)=NC(c2cccnc2)=[N+]1[O-] | 14.4% |
| CCN(CC)C(=O)CC(c1ccc(OC)cc1)c1c(O)cc(OC)cc1OC (stereo not drawn) | -3.63% |
| O=S(=O)(NN=C1CCCCCC1)c1ccccc1 | 4.49% |
| C=CCn1c(SCC(=O)c2ccc(O)c(O)c2)nnc1-c1ccccc1OC | 4.28% |
| COCCCNC(=O)CN1C(=O)COc2ccc(S(=O)(=O)N3CCCCCC3)cc21 | 15.6% |
| O=C(COC(=O)Cc1cccc(C(F)(F)F)c1)NC1CC1 | 10.7% |
| COc1ccc2nc(-c3ccccc3)[nH]c2c1 | 11.2% |
| Cc1cccc(Nc2ccccc2C(=O)OCC(=O)NCc2ccco2)c1C | 1.37% |
| O=S(=O)(N/N=C\C=C\c1ccccc1)c1ccc(Cl)cc1 | -7.42% |
| CCOC(=O)CCc1c(C)nc2c(c(C)nn2-c2ccccc2)c1C | 6.45% |
| CC(C)Cn1c(N)c(C(=O)COC(=O)/C=C/c2ccccc2)c(=O)n(C)c1=O | 6.62% |
| CCC(=O)c1ccc(OCC(O)CNCCc2ccc(Cl)cc2)cc1 (stereo not drawn) | -69.9% |
| O=C(Nc1cc(Cl)ccc1Cl)c1ccc(OC(=O)c2ccco2)cc1 | 2.48% |
| COc1cccc2sc(NC(=O)c3ccc(Br)s3)nc12 | 12.5% |
| CCn1c(SCC(=O)N2CCCc3ccccc32)nc2ccccc2c1=O | 7.83% |
| COc1cc(NC(=O)CSc2ccc(-c3ccco3)nn2)cc(OC)c1 | 11.3% |
| CCNc1ccccc1CP(=O)(c1ccccc1)c1ccccc1O (stereo not drawn) | 22.1% |

| Compound | hERG current change (%, negative = inhibition) at 1uM |
| --- | --- |
| O=c1oc2ccccc2c(CNc2ccccc2)c1[N+](=O)[O-] | 11.1% |
| CC(C)C[C@H](NC(=O)N1CCn2c1nc1ccccc12)C(=O)N[C@@H](Cc1ccccc1)C(=O)O | -3.94% |
| COc1ccccc1N1CCN(S(=O)(=O)CCNC(=O)C2CC(=O)N(c3ccccc3)C2)CC1 (stereo not drawn) | 11.1% |
| CCOC(=O)c1cc(NC(=O)N2CCCc3ccccc32)c(C)nc1C | 9.74% |
| Cc1n[nH]c(C)c1Cc1ccc(C(=O)O)cc1 | 11.4% |
| Cc1cc(C)n2nc(SCC(=O)N(C)Cc3ccccc3)nc2n1 | 8.27% |
| Cc1ccc(S(=O)(=O)n2ccc(OC(=O)c3cccs3)n2)cc1 | 13.1% |
| CC(=O)Nc1ccc(S(=O)(=O)NCc2ccc(C(=O)NCc3ccc(Cl)cc3)cc2)cc1 | 13% |
| Cc1ccc(S(=O)(=O)NCc2c(Cl)cccc2Oc2ccccc2)cc1 | 12.7% |
| Cc1c(CN2CCCCC2)c(O)n(CCO)c(=O)c1C#N | 11.3% |
| Cc1cc(Cl)ccc1OCC(=O)Nc1ccc2oc(=O)ccc2c1 | 5.14% |
| COc1ccc(NC(=O)CS(=O)CC(=O)NCc2cccc(C(F)(F)F)c2)cc1 (stereo not drawn) | 7.17% |
| Cc1nc2cc(C(F)(F)F)ccc2n1CCNc1nc(-c2cc(Cl)c(N)c(Cl)c2)cs1 | 9.16% |
| Cc1ccc2oc(=O)c3cc(C(=O)Nc4cc(-c5cccc(F)c5)no4)sc3c2c1 | 5.77% |
| C(=N\c1nc2ccccc2n1CCN1CCCCC1)/c1cccs1 | -3.86% |
| CCOc1ccc(S(=O)(=O)n2cnc3ccccc32)cc1 | 14.3% |
| O=C(O)CCCNC(=O)c1cncc(Br)c1 | 14.7% |
| O=C(NCc1cccs1)C1CC(=O)N(c2ccccc2)C1 (stereo not drawn) | -3.14% |
| O=C(NC12CC3CC(CC(C3)C1)C2)N1CCCC(CO)C1 (stereo not drawn) | 12.7% |
